This sample is rich in variants without activity.
B1: TPR 5TU (parent)
chain: GGAUCUUCUCGAUCUAACAAAAAAGACAAAUCUGCCACAAAGCUUGAGAGCAUCUUCGGAUGCAGAGGCGGCAGCCUUCGGUGGCGCGAUAGCGCCAACGUUCUCAACUAUGACACGCAAAACGCGUGCUCCGUUGAAUGGAGUUUAUCAUG

Variants of: B1
Assay: polymerase ribozyme fitness, log enrichment relative to wild type (log ratio); higher = more active; in vitro selection for triplet polymerase activity
Outline: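 PCR was used to build mutant libraries for each subunit of a heterodimeric triplet polymerase ribozyme, which were then transcribed. A single in vitro selection round, in triplicate, used a frozen incubation at −7 °C and recovered extended constructs by gel excision, streptavidin beads and RT-PCR. Fitness is the logarithm of genotype enrichment relative to wild-type enrichment, averaged over replicates with inverse-variance weights. The logarithm is base 2, and after Illumina sequencing only genotypes with ≥10 input reads and ≥1 read per output were kept.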

Polymerase ribozyme fitness (log ratio), ≤ -4.2:
GGAUCUUCUCGAUCUAACAAAAAAGACAAAUCUGCCUCAAAGCUUGAGAGCAUCGUCGGAUGCAGAGGCGGCAGCCUUCGGUGGCGCGAUAGCGGCAACGUUCUCAACUACGACACGCAAAACGCGUGCUCCGUUAAAUGGAAUUUAUCAUG [A37U U55G C95G U111C G136A G143A]
GGAUCUUCUCGAUCUAACAAAAAAGACAAAUCUGCCUCAAAGCUUGAAAGCAUCUACGGAUGCAGAGGCGGCAGCCGUCGGUGGCGCGAUAACGCCAACGUUCUCAACUAUGACACGCAAAACGCAUGCUCCGUUGAAUGGGCUUUAUCAAG [A37U G48A U56A U77G G92A G126A A142G G143C U151A]
GGAUCUUCUCGAUCUAACAAAAAAGACAAAUCUGCCUCAAAGCUUGAUAGCAUCUACGGAUGCAGAGGCGGCAGCCUUCGGUGGCCCGAUAGCGCCAACGUUCUCAACUAUGACACGCAAAACGCGUGCUCCGUUGAAUGGAGUUUCUCAUG [A37U G48U U56A G86C A147C]
GGAUCUUCUCGAUCUAACAAAAAAGACAAAUCUGCCUCAAAGCUUGAGAGCAUCAUCGGAUGCAGAGGCGGCAGCCUUCGGUGGCGCGAUAGCAGCAACGUUCUCAACUAUGACACGCAAAACGCGUGCUCCGUUGAAUCGAGUUUAUCAUG [A37U U55A G94A C95G G140C]
GGAUCUUCUCGAUCUAACAAAAAAGACAAAUCUGCCUCAAAGCUUGAGAGCAUCUUCAGAUCCAGAGGCGGUAGCCUUGGGUGGCGCGAUAGCACCAACGUUCUCAACUAUGACACGCAAAAUACGUGCUACGUUGAAUGGAGUUUAUCAUG [A37U G58A G62C C72U C79G G94A C123U G124A C131A]
GGAUCUUCUCGAUCUAACAAAAAAGACAAAUCUGCCUCAAAGCUUGAGAACAUCUUCGGAAGCAGAGGCGGCAGCCUUCGGUGGCGCGCUAGCGCCAACGUUCUCAACGAUGACACGCAAAACGCGUGCUCCGUUGAAUGGAGUUUAUCAUG [A37U G50A U61A A89C U109G]
GGAUCUUCUCGAUCUAACAAAAAAGACAAAUCUGCCUCAAAGCUCGAGAGCAUCUUCGGAUGCAGAGGCGGCAGCCUUCGGUGGCACGAUAGCGCCAACGUUCACAACUAUGACACGCUAAACUCGUGCUCCGUUGAAUGGAGUUUAUCAUG [A37U U45C G86A U104A A119U G124U]
GGAUCUUCUCGAUCUAACAAAAAAGACAAAUCUGCCUCAAAGCUUGAGAGCAUCUUCGGAUGCAGAUGCGGCAGCCUUCGGUGGCGCGAUACCGCGAACGUUCUCAACUUUGACACGCAAAACGCGUGCUCCGUUGAAUGGAGUUUAUCGUG [A37U G67U G92C C96G A110U A150G]
GGAUCUUCUCGAUCUAACAAAAAAGACAAAUCUGCCUCAAAGCUUGAGAGCAUCUUCGGAUGCAGAGGCGGCAGCCUUCGGUGGCUCGAUAGCGCCAACGUUCUCACCUAUGACACGCAAAACGCGUGCUCCGUUGAAUGGAGUUUAUCAUG [A37U G86U A107C]
GGAUCUUCUCGAUCUAACAAAAAAGACAAAUCUGCCUCAAAGCUUGAGAGCAUCUUCGGAUGCAGAGGCGGCAUCCUUCGGUGGCGCGAUAGCGGCAACGUGCUGAACUAUGACACGCAAAACGCGUGCUCCGUUGAAUGGAGUUUAUCAUG [A37U G74U C95G U102G C105G]
GGAUCUUCUCGAUCUAACAAAAAAGACAAAUCUGCCUCAAAGCUUGAGAGCAUCGUCGGAUGCAGAGGCGUCAGCCUUCGGUUGCGCGUUAGCGCCAACGUUCUCAACUAUGACACGCAAAACGCGUGCUCCGUUGAAUGGCGUUUAUCAUG [A37U U55G G71U G83U A89U A142C]
GGAUCUUCUCGAUCUAACAAAAAAGACAAAUCUGCCUCAAAGCUUGAGAGCAUCUUCGGAUGCAGAGGCCGCAGCCUUCGGUGGCGGGAUAGCGCCAACGUUCUCAACUAUGACACGCAAAACGCGUGCUCCGUUGUAUGGAGUUUAUCAUG [A37U G70C C87G A137U]
GGAUCUUCUCGAUCUAACAAAAAAGACAAAUCUGCCUCAAAGCUUGAGAGCAUCUUCGGAUGCAGAGGCCGCAGCCUUCGGUGGUGCGAUAACGCCAACGUUCUCAACUAUGACACGCAAAACGCGUGCUCCGUUGAAUGGAGUUUAUCAUG [A37U G70C C85U G92A]
GGAUCUUCUCGAUCUAACAAAAAAGACAAAUCUGCCUCAAAGCUUGAGAGCAUCUUCGGAUGCAGAGGCGGCAACCUUCGGUGGCGCGAUAGUGCCAACGUUCUCAACUAUGACACGCAAAACGCGUGCUCCUUUGAAUGGAGUUUAUCAUG [A37U G74A C93U G133U]
GGAUCUUCUCGAUCUAACAAAAAAGACAAAUCUGCCUCAAAGCUUGAGAGCAACUUCGGAUGCAGAGGCGGCAGGCUUCGGUGGGGCGAUAGCGCCAACGUUCUCAACUAUGACACGCAAAACGCGUGCUCCGUUGAAUGGAGUUUAUCAUG [A37U U53A C75G C85G]
GGAUCUUCUCGAUCUAACAAAAAAGACAAAUCUGCCUCAAAGCAUGAGAGCAUCUUCGGAUGCAGAGGCGGCAGCCUUCGGUGGCGCGAUAGCGUCAACGUUCUCAAAUAUGACACGCAAAACGCGUGCUCCGUUGAAUGGAGUUUAUCAUG [A37U U44A C95U C108A]
GGAUCUUCUCGAUCUAACAAAAAAGACAAAUCUGCCUCAAAGCUUGAGACCAUCUUCGGAUGCAGAGGCGGCAGCCUUCGGUGGCGCGAUUGCGCCAACGUUCUCGACUAUGACACGCAAAACGCGUGCUCCGUGGAAUGGAGUUUAUCAUG [A37U G50C A91U A106G U135G]
GGAUCUUCUCGAUCUAACAAAAAAGACAAAUCUGCCUCAAAUCUUGAGAGCAUCAUCGGAUGCAGAGGCGGCAGACUUCGGUGGCGCGAUAGCGCCAACGUUCUCAACUAUGACACGCAAAACGCGUGCUCCGUUAAAUGGAGUUUAUCAUG [A37U G42U U55A C75A G136A]
GGAUCUUCUCGAUCUAACAAAAAAGACAAAUCUGCCUCAAAACUUGAGAGCAUCUUCGGAUGCAGAGGCGGCAGCCUUCGGUGGCGCCAUAGCGCCAACGUUCUCAACUAUGACACGCAAAACGCGUGCUCCGUUGAAUGGAGUUUAUCAUG [A37U G42A G88C]
